Test system: hypoxia-inducible endogenous VEGF expression
Experiment: Hypoxia-inducible endogenous VEGF expression ELISA in HeLa cells, dose-response (EC50, Table 3)
Settings: read-out: ELISA EC50 μM, hypoxic conditions (1% O2, 5% CO2), VEGF protein by ELISA of conditioned media

With Cc1ccc(OC(=O)N2CCc3c([nH]c4ccc(Cl)cc34)[C@@H]2c2ccc(OCC(C)(CO)CO)cc2)cc1 [Compound 1297] the EC50 was 0.008 to 0.04 µM.

Source: patent US20120202801A1, “METHODS FOR TREATING BREAST CANCER” (priority 2009, published 2012)
